Results as given in PubChem BioAssay (NCATS).
The shares of active, inactive and inconclusive entries below differ from those in the screen. Where the call is inconclusive, the potency comes from a doubtful curve fit. Activity calls are given as the source filed them. Unless noted, calls come from the whole dose curve; as a rule, active = well fitted curve in the direction sought with a large enough effect; inconclusive = small, poorly fitted or top-dose-only effect, or another doubt; inactive = no such curve, though single readings can be large; an effect the other way counts as inactive or inconclusive.

Tests used:
[1] = molecular target: Aldehyde dehydrogenase, mitochondrial (Homo sapiens) (UniProt P05091); test: qHTS for Inhibitors of the Aldehyde Dehydrogenase Family (ALDH2) Confirmatory screens (AID 2061303; active = well fitted inhibition curve with a large enough effect; inconclusive = small, poorly fitted or top-dose-only effect; inactive = no such curve, though single readings can be large or run the other way; title and protocol of this record describe different tests; note: nearly all actives have a fitted effect of over 45% in size); conditions: ALDH inhibition qHTS; activity change, negative = inhibition: at 45.4 µM (top of the series)
[2] = qHTS for Inhibitors of the Aldehyde Dehydrogenase Family (ALDH1A2, ALDH1A3, ALDH2, ALDH3A1) (AID 2061307); conditions: ALDH inhibition qHTS; activity change, negative = inhibition: at 50.3 µM (top of the series) unless noted; note: nearly all actives have a fitted effect of over 50% in size; for potency: test system not described further here
[3] = molecular target: Retinal dehydrogenase 2 (Homo sapiens) (UniProt O94788); test: qHTS for Inhibitors of the Aldehyde Dehydrogenase Family (ALDH1A2) Confirmation screens (AID 2061314); conditions: activity, negative = inhibition: at 45.9 µM (top of the series) unless noted; note: nearly all actives have a fitted effect of over 65% in size
[4] = molecular target: Retinaldehyde dehydrogenase 3 (Homo sapiens) (UniProt P47895); test: qHTS for Inhibitors of the Aldehyde Dehydrogenase Family (ALDH1A3) Primary screen (AID 2061315); conditions: ALDH inhibition qHTS; activity change, negative = inhibition: at 56 µM (top of the series) unless noted
[5] = molecular target: Aldehyde dehydrogenase 1A1 (Homo sapiens) (UniProt P00352); test: qHTS for Inhibitors of the Aldehyde Dehydrogenase Family (ALDH1A1) Confirmatory screens (AID 2061316); conditions: activity change, negative = inhibition: at 47.3 µM (top of the series); note: nearly all actives have a fitted effect of over 65% in size
[6] = molecular target: Aldehyde dehydrogenase, mitochondrial (Homo sapiens) (UniProt P05091); test: qHTS for Inhibitors of the Aldehyde Dehydrogenase Family (ALDH2) Primary screen (AID 2061308); note: nearly all actives have a fitted effect of over 55% in size
[7] = molecular target: Retinaldehyde dehydrogenase 3 (Homo sapiens) (UniProt P47895); test: qHTS for Inhibitors of the Aldehyde Dehydrogenase Family (ALDH1A3) Confirmatory screens (AID 2061311); conditions: activity change, negative = inhibition: at 46 µM (top of the series); note: nearly all actives have a fitted effect of over 60% in size
[8] = molecular target: Retinaldehyde dehydrogenase 3 (Homo sapiens) (UniProt P47895); test: qHTS for Inhibitors of the Aldehyde Dehydrogenase Family (ALDH1A3) Validation screen (AID 2061312); conditions: ALDH1A3 enzyme inhibition qHTS validation, fluorescence; activity change, negative = inhibition: at 84.7 µM (top of the series); note: nearly all actives have a fitted effect of over 45% in size
Potency is the fitted concentration of half-maximal effect; tags give direction and shape of the fitted curve.

Row | Structure (SMILES) | Potency [1] | Potency [2] | Potency [3] | Potency [4] | Potency [5] | Potency [6] | Potency [7] | Potency [8]
1 | O=C(Nc1ccc(N2CCOCC2)nc1)c1cccs1 | inconclusive: 10.1 µM [inhibitor, partial curve] | active: 25.1 µM | active: 22.5 µM | – | – | – | – | –
2 | COc1cc(O[C@@H]2O[C@H](CO[C@H]3OC[C@](O)(CO)[C@H]3O)[C@@H](O)[C@H](O)[C@H]2O)cc(OC)c1O | inconclusive: 1.12 µM [inhibitor, full curve, poor fit] | inconclusive: 0.0794 µM [inhibitor, full curve, poor fit] | inconclusive: 3.9 µM [inhibitor, full curve, poor fit] | active: 2.82 µM | inactive | – | – | –
3 | O=C(O)c1cn(C2CC2)c2cc(N3C[C@@H]4C[C@H]3CN4)c(F)cc2c1=O | inactive | inconclusive: 28.3 µM [inhibitor, single point] | inactive | – | active: 31.8 µM | – | – | –
4 | COc1cc2ncc(-c3ccccc3)nc2cc1OC | inactive | inconclusive: 21.4 µM [inhibitor, partial curve] | inactive | inconclusive: 17.8 µM [inhibitor, partial curve] | inconclusive: 14.2 µM [inhibitor, partial curve, poor fit] | – | – | –
5 | COC(=O)c1ccc(O[C@@H]2O[C@H](CO)[C@@H](O)[C@H](O)[C@H]2O)c(OC)c1 | inactive | inconclusive: 3.12 µM [inhibitor, full curve, poor fit] | inconclusive: 6.97 µM [inhibitor, partial curve] | inconclusive: 15.8 µM [inhibitor, partial curve, poor fit] | inconclusive: 7.83 µM [inhibitor, partial curve] | – | – | –
6 | CN(C)CCCNc1ncnc2ccc(-c3ccc4c(c3)OCO4)cc12 | inactive | inactive | inconclusive: 35.7 µM [inhibitor, single point] | – | inactive | – | – | –
7 | CC(O)CCC1C(CO[C@@H]2O[C@H](CO)[C@@H](O)[C@H](O)[C@H]2O)CC(O)CC1(C)C (stereo partly specified) | inconclusive: 5.54 µM [inhibitor, partial curve, poor fit] | inactive | inactive | active: 6.31 µM | inconclusive: 6.97 µM [inhibitor, partial curve, poor fit] | – | – | –
8 | CCOc1ccc(-c2cc(C(=O)N3CCN(c4cccc(C(F)(F)F)c4)CC3)c3ccccc3n2)cc1 | inconclusive: 0.199 µM [inhibitor, full curve, poor fit] | inconclusive: 20 µM [inhibitor, single point] | inconclusive: 5.01 µM [inhibitor, full curve, poor fit] | – | – | – | – | –
9 | Cc1nnc(-c2ccc3occ(-c4ccc(S(C)=O)cc4)c3c2)o1 (stereo unspecified) | inconclusive: 1.78 µM [inhibitor, full curve] | inconclusive: 7.94 µM [inhibitor, full curve, poor fit] | inconclusive: 28.2 µM [inhibitor, partial curve] | inconclusive: 11.2 µM [inhibitor, partial curve] | – | – | – | –
10 | COc1ccc(CNc2ccc(S(=O)(=O)Nc3nccs3)cc2)cc1O | inconclusive: 7.98 µM [inhibitor, partial curve] | inconclusive: 4 µM [inhibitor, full curve, poor fit] | active: 6.34 µM | – | – | – | – | –
11 | Cc1noc(C)c1N[S+](=O)([O-])c1ccc(NC(=O)Cc2ccc(Cl)c(Cl)c2)cc1 | active: 7.08 µM | inconclusive: 7.12 µM [inhibitor, full curve] | inconclusive: 4.49 µM [inhibitor, full curve] | inactive | inconclusive: 8.91 µM [inhibitor, full curve, poor fit] | – | – | –
12 | O=c1[nH]c(CN2CCOCC2)nc2sc3c(c12)CCC3 | inactive | inconclusive: 20.1 µM [inhibitor, partial curve] | inconclusive: 10.1 µM [inhibitor, partial curve, poor fit] | – | inactive | – | – | –
13 | CN(C)c1ccc(C(=O)NCC(=O)OC(C(=O)Nc2cc(C(F)(F)F)ccc2Cl)c2ccccc2)cc1 (stereo unspecified) | inconclusive: 25.2 µM [inhibitor, partial curve, poor fit] | inactive | inconclusive: 4 µM [inhibitor, full curve] | – | inconclusive: 22.5 µM [inhibitor, partial curve, poor fit] | – | – | –
14 | Fc1ccc(N2CCN(CCC3OCCc4ccccc43)CC2)cc1 (stereo unspecified) | inactive | – | inconclusive: 14.2 µM [inhibitor, partial curve] | inconclusive: 8.91 µM [inhibitor, partial curve, poor fit] | inactive | inconclusive: 25.1 µM [inhibitor, single point] | inconclusive: 15.9 µM [inhibitor, partial curve] | inconclusive: 11.2 µM [inhibitor, partial curve, poor fit]
